From a collection of fitness landscapes (doi:10.1038/s41467-024-54723-y)
In all, about 18,000 sequences were measured (“TetR repression strength (sort-seq, GFP reporter)”: median about 0.23, highest 2% from about 0.68 on). Some of the results follow.

Each sequence was assayed against TetR (class B, Tn10) (UniProt P04483) (assay: TetR repression strength (sort-seq, GFP reporter) (relative to tetO2 = 1); higher = stronger repression). Conditions: E. coli.
Summary of the method: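 Escherichia coli SIG10-MAX cells carried a low-copy plasmid library in which eight operator positions were randomized between a constitutive promoter and sfGFP, and TetR was expressed constitutively. After 5 h of growth at 37 °C in LB with 50 µg/mL chloramphenicol, 10^6 cells were FACS-sorted into 13 fluorescence bins, and each bin was Illumina-sequenced. Repression strength was the top bin index plus one minus the read-weighted mean bin, divided by the value for the unaltered operator. Across three independent transformations, only library members with ≥30 reads in every replicate and a CV ≤0.5 were averaged.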

Chain of UniProt P04483 (P04483 whole entry): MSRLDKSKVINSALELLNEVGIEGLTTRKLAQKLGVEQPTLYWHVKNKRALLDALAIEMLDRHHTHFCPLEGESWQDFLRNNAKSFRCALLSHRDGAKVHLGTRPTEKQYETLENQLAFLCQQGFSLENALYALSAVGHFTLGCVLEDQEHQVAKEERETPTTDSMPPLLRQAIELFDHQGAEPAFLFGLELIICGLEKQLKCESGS

Question: With TCCCTACAAGTACAGGAGA as the sequence, how does the TetR repression strength read?
Answer: 0.249

Question: How did the TetR repression strength turn out when TCCCCGTAAGTGCGTGAGA was run?
Answer: 0.269

Question: For TCCCATCTAGTACGGGAGA, which TetR repression strength is on record?
Answer: 0.134

Question: How did the TetR repression strength turn out when TCCCTCACAGTTCCTGAGA was run?
Answer: 0.368

Question: Which TetR repression strength does the source give for TCCCTGCGAGTCCCTGAGA here?
Answer: 0.194

Question: With TCCCCTGAAGTGGTGGAGA as the sequence, how does the TetR repression strength read?
Answer: 0.0248

Question: For TCCCCACAAGTGGGGGAGA, which TetR repression strength is on record?
Answer: 0.157

Question: TCCCCGAAAGTGGTTGAGA was tested. Which TetR repression strength did it give?
Answer: 0.272

Question: TCCCATAAAGTTAGTGAGA was tested. Which TetR repression strength did it give?
Answer: 0.0787

Question: For TCCCTAATAGTGTTCGAGA, which TetR repression strength is on record?
Answer: 0.362

Question: Which TetR repression strength does the source give for TCCCATGGAGTGATAGAGA here?
Answer: 0.548

Question: With TCCCTTGCAGTGTACGAGA as the sequence, how does the TetR repression strength read?
Answer: 0.204

Question: With TCCCCTTTAGTATACGAGA as the sequence, how does the TetR repression strength read?
Answer: 0.259

Question: Which TetR repression strength does the source give for TCCCAAGTAGTAGTAGAGA here?
Answer: 0.0243

Question: How did the TetR repression strength turn out when TCCCCCCGAGTGATCGAGA was run?
Answer: 0.162

Question: With TCCCGTTTAGTCTCTGAGA as the sequence, how does the TetR repression strength read?
Answer: 0.0895

Question: Which TetR repression strength does the source give for TCCCTAGGAGTGTCTGAGA here?
Answer: 0.134

Question: How did the TetR repression strength turn out when TCCCAGTGAGTAGTCGAGA was run?
Answer: 0.212

Question: With TCCCAGCTAGTAGTCGAGA as the sequence, how does the TetR repression strength read?
Answer: 0.463

Question: With TCCCCGCTAGTCGTGGAGA as the sequence, how does the TetR repression strength read?
Answer: 0.216

Question: For TCCCTGAGAGTTATGGAGA, which TetR repression strength is on record?
Answer: 0.0707

Question: How did the TetR repression strength turn out when TCCCCGCTAGTGGCGGAGA was run?
Answer: 0.229

Question: TCCCTTGAAGTGGTTGAGA was tested. Which TetR repression strength did it give?
Answer: 0.261

Question: Which TetR repression strength does the source give for TCCCAGGGAGTCTTCGAGA here?
Answer: 0.16

Question: Which TetR repression strength does the source give for TCCCTGTAAGTGAGGGAGA here?
Answer: 0.157

Question: Which TetR repression strength does the source give for TCCCTAGCAGTTTCTGAGA here?
Answer: 0

Question: Which TetR repression strength does the source give for TCCCGTGAAGTGACGGAGA here?
Answer: 0.297

Question: How did the TetR repression strength turn out when TCCCCTGAAGTTGCGGAGA was run?
Answer: 0.0976

Question: TCCCCGTGAGTTTTTGAGA was tested. Which TetR repression strength did it give?
Answer: 0.286

Question: With TCCCATAAAGTCAGTGAGA as the sequence, how does the TetR repression strength read?
Answer: 0.311

Question: For TCCCACCAAGTGAGGGAGA, which TetR repression strength is on record?
Answer: 0.324

Question: With TCCCCCACAGTAAGAGAGA as the sequence, how does the TetR repression strength read?
Answer: 0.158

Question: How did the TetR repression strength turn out when TCCCAGATAGTTCAGGAGA was run?
Answer: 0.474

Question: Which TetR repression strength does the source give for TCCCGTAAAGTGAGAGAGA here?
Answer: 0.207

Question: How did the TetR repression strength turn out when TCCCGTTTAGTATGGGAGA was run?
Answer: 0.225

Question: With TCCCGGAAAGTATACGAGA as the sequence, how does the TetR repression strength read?
Answer: 0.207

Question: With TCCCAAGGAGTGAAAGAGA as the sequence, how does the TetR repression strength read?
Answer: 0.213

Question: Which TetR repression strength does the source give for TCCCCGACAGTAGTCGAGA here?
Answer: 0.233

Question: With TCCCTCTGAGTCATAGAGA as the sequence, how does the TetR repression strength read?
Answer: 0.207

Question: With TCCCGGGGAGTGTTCGAGA as the sequence, how does the TetR repression strength read?
Answer: 0.331

Question: TCCCAATGAGTTGTGGAGA was tested. Which TetR repression strength did it give?
Answer: 0.19

Question: How did the TetR repression strength turn out when TCCCGGGTAGTCTAGGAGA was run?
Answer: 0.199

Question: TCCCTGAAAGTAGTAGAGA was tested. Which TetR repression strength did it give?
Answer: 0.597

Question: TCCCATGCAGTATGGGAGA was tested. Which TetR repression strength did it give?
Answer: 0.192

Question: Which TetR repression strength does the source give for TCCCATTTAGTCCGGGAGA here?
Answer: 0.181

Question: Which TetR repression strength does the source give for TCCCTGAGAGTGAGGGAGA here?
Answer: 0.246

Question: With TCCCGGACAGTTAGAGAGA as the sequence, how does the TetR repression strength read?
Answer: 0.456

Question: How did the TetR repression strength turn out when TCCCAGCAAGTTTGGGAGA was run?
Answer: 0.222

Question: For TCCCAGAGAGTTTGAGAGA, which TetR repression strength is on record?
Answer: 0.278

Question: How did the TetR repression strength turn out when TCCCGGATAGTGCTTGAGA was run?
Answer: 0.127

Question: With TCCCCAATAGTATTGGAGA as the sequence, how does the TetR repression strength read?
Answer: 0.224

Question: For TCCCTGGTAGTTACTGAGA, which TetR repression strength is on record?
Answer: 0.215

Question: With TCCCGCGAAGTAACCGAGA as the sequence, how does the TetR repression strength read?
Answer: 0.211

Question: Which TetR repression strength does the source give for TCCCAAGCAGTATGCGAGA here?
Answer: 0.102

Question: Which TetR repression strength does the source give for TCCCCGTAAGTTGCAGAGA here?
Answer: 0.216

Question: For TCCCGTATAGTGAGGGAGA, which TetR repression strength is on record?
Answer: 0.0277

Question: How did the TetR repression strength turn out when TCCCCACAAGTCGGAGAGA was run?
Answer: 0.341

Question: For TCCCTGCTAGTTGGAGAGA, which TetR repression strength is on record?
Answer: 0.285

Question: For TCCCGCAAAGTCGGCGAGA, which TetR repression strength is on record?
Answer: 0.202

Question: With TCCCTCAGAGTGGGGGAGA as the sequence, how does the TetR repression strength read?
Answer: 0.144

Question: Which TetR repression strength does the source give for TCCCCGTGAGTCTGAGAGA here?
Answer: 0.215

Question: With TCCCAAATAGTTCCTGAGA as the sequence, how does the TetR repression strength read?
Answer: 0.246

Question: Which TetR repression strength does the source give for TCCCCAGTAGTGAAAGAGA here?
Answer: 0.331

Question: With TCCCATGAAGTGGGGGAGA as the sequence, how does the TetR repression strength read?
Answer: 0.0668

Question: For TCCCTGAAAGTAGAGGAGA, which TetR repression strength is on record?
Answer: 0.0426

Question: Which TetR repression strength does the source give for TCCCGGGGAGTTGCTGAGA here?
Answer: 0.261

Question: With TCCCACGAAGTTCCAGAGA as the sequence, how does the TetR repression strength read?
Answer: 0.319

Question: For TCCCGTATAGTTTCCGAGA, which TetR repression strength is on record?
Answer: 0.434

Question: TCCCTTGGAGTCGTCGAGA was tested. Which TetR repression strength did it give?
Answer: 0.511

Question: For TCCCCAGAAGTATCGGAGA, which TetR repression strength is on record?
Answer: 0.213

Question: For TCCCCTTTAGTTGTAGAGA, which TetR repression strength is on record?
Answer: 0.246

Question: With TCCCTCGAAGTTTTCGAGA as the sequence, how does the TetR repression strength read?
Answer: 0.415

Question: With TCCCTGGCAGTTGATGAGA as the sequence, how does the TetR repression strength read?
Answer: 0.204

Question: With TCCCTATTAGTGGGGGAGA as the sequence, how does the TetR repression strength read?
Answer: 0.358

Question: TCCCGAGAAGTCAGTGAGA was tested. Which TetR repression strength did it give?
Answer: 0.232

Question: TCCCAGGGAGTGATAGAGA was tested. Which TetR repression strength did it give?
Answer: 0.424

Question: With TCCCGTCAAGTTAAGGAGA as the sequence, how does the TetR repression strength read?
Answer: 0.279

Question: For TCCCGGTTAGTACATGAGA, which TetR repression strength is on record?
Answer: 0.194

Question: Which TetR repression strength does the source give for TCCCGAGCAGTCGAGGAGA here?
Answer: 0.143

Question: With TCCCCTGCAGTGCATGAGA as the sequence, how does the TetR repression strength read?
Answer: 0.0312

Question: For TCCCTACTAGTGGGCGAGA, which TetR repression strength is on record?
Answer: 0.362

Question: For TCCCACTGAGTTGGAGAGA, which TetR repression strength is on record?
Answer: 0.16

Question: With TCCCAAACAGTGTATGAGA as the sequence, how does the TetR repression strength read?
Answer: 0.0683

Question: TCCCGCCCAGTACTAGAGA was tested. Which TetR repression strength did it give?
Answer: 0.207

Question: With TCCCCCAAAGTTTTAGAGA as the sequence, how does the TetR repression strength read?
Answer: 0.263

Question: Which TetR repression strength does the source give for TCCCAACTAGTCACAGAGA here?
Answer: 0.207

Question: Which TetR repression strength does the source give for TCCCTGTGAGTGCCTGAGA here?
Answer: 0.088

Question: How did the TetR repression strength turn out when TCCCAGAGAGTAGGCGAGA was run?
Answer: 0.466

Question: TCCCGTATAGTGACCGAGA was tested. Which TetR repression strength did it give?
Answer: 0.254

Question: Which TetR repression strength does the source give for TCCCTGGTAGTCATGGAGA here?
Answer: 0.341

Question: TCCCACGCAGTCTAGGAGA was tested. Which TetR repression strength did it give?
Answer: 0.321

Question: For TCCCCGGGAGTGCGGGAGA, which TetR repression strength is on record?
Answer: 0.125

Question: For TCCCGACCAGTGCAGGAGA, which TetR repression strength is on record?
Answer: 0.805

Question: With TCCCGTATAGTGAGCGAGA as the sequence, how does the TetR repression strength read?
Answer: 0.081

Question: Which TetR repression strength does the source give for TCCCGCGGAGTACGAGAGA here?
Answer: 0.0554

Question: With TCCCAGTCAGTCGTGGAGA as the sequence, how does the TetR repression strength read?
Answer: 0.332

Question: Which TetR repression strength does the source give for TCCCAGTTAGTTCGAGAGA here?
Answer: 0.263

Question: With TCCCGAGAAGTTGTTGAGA as the sequence, how does the TetR repression strength read?
Answer: 0.27

Question: Which TetR repression strength does the source give for TCCCGCTCAGTTATAGAGA here?
Answer: 0.764

Question: How did the TetR repression strength turn out when TCCCGCATAGTGGGCGAGA was run?
Answer: 0.0241

Question: With TCCCATCTAGTCAGGGAGA as the sequence, how does the TetR repression strength read?
Answer: 0.305

Question: TCCCAAGTAGTTGTTGAGA was tested. Which TetR repression strength did it give?
Answer: 0.101
